Assay results: PubChem BioAssay AID1508623 (National Center for Advancing Translational Sciences (NCATS), 2021)
Hit rate of the full screen: of about 48,000 compounds, about 450 (0.94%) were called active. Not shown: some 19% with an inconclusive outcome. Calls come from the whole dose curve; as a rule, active = well fitted inhibition curve with a large enough effect; inconclusive = small, poorly fitted or top-dose-only effect; inactive = no such curve, though single readings can be large or run the other way. The list shows a part of the results.

assay: Primary qHTS for Identification of Small Molecule Inhibitors of Huntingtin Promoter Activity; details: HEK293 HTT promoter firefly luciferase reporter (activity 0% = vehicle and -100% = no light), 24 h; series mostly up to 57.5 µM; activity change, negative = inhibition: at the top concentration; note: nearly all actives have a fitted effect of over 50% in size
Outline: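 HEK293 luciferase promoter-reporter cells (2,500/well) plated 24 h, then compounds added at up to 57.5 uM final for 24 h at 37 °C. Firefly luminescence by Dual-Glo, normalized to vehicle (0%) and zero RLU (-100%).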
Potency is the fitted concentration of half-maximal effect.

SMILES | activity change, negative = inhibition | Potency
Cc1ccc(C)c(N2CCN(C(=O)C3CCC(CNS(=O)(=O)c4ccc(Br)s4)CC3)CC2)c1 (stereo not drawn) | inactive: -27.1% | 
COc1cccc(NC(=O)Cn2c(=O)n(CCCCC(=O)NCc3ccc4c(c3)OCO4)c(=O)c3ccccc32)c1 | inactive: -13.6% | 
N#Cc1ccc(NC(=O)c2ccc3c(c2)nnn3C2CCCC2)cc1 | inactive: -51.3% | 
CCCS(=O)(=O)N1CC(=O)N(c2cc(C)cc(C)c2)C(C)(C(=O)NC2CCCCCC2)C1 (stereo not drawn) | inactive: -0.913% | 
CCOc1ccccc1C(=O)Nc1cc(-c2nc3cccnc3s2)ccc1C | inactive: 14.1% | 
CCC(Sc1ncnc2sc3c(c12)CCCC3)C(=O)OCC(C)C (stereo not drawn) | inactive: -10.5% | 
CCOC(=O)N1CCC(NC(=O)c2cnn(-c3ccc(C)cc3)c2C2CCN(C(=O)OC(C)(C)C)CC2)CC1 | inactive: 3.24% | 
Oc1cccc(Nc2cc(-c3ccccc3)ncn2)c1 | inactive: 49.3% | 
Cc1ccc(NC(=O)CCc2c(C)nc3ncnn3c2C)cc1Cl | inactive: -3.24% | 
Cc1ccccc1NC(=O)Cn1nnc(C(=O)NCc2cccs2)c1N | inactive: -31.8% | 
CCc1ccc(NS(=O)(=O)c2ccc(NC(=O)N3CCCC3)cc2)cc1 | inactive: -27.6% | 
Cc1ccc(CSc2nc3cc(C(=O)NC4CCCC4)ccc3c(=O)n2Cc2ccccc2)cc1 | inactive: 2.98% | 
CC(CNC(=O)c1csc2c1CCCCC2)c1ccccc1 (stereo not drawn) | inactive: 20.5% | 
CCc1ccc(NC(=O)Cn2nnc(C(=O)Nc3ccc(F)cc3)c2N)cc1 | inactive: 1.36% | 
O=C(Nc1cccc(O)c1)c1cc(-c2ccccc2F)no1 | inactive: 24.2% | 
O=C(NCc1cccc(Cl)c1)c1ccc2c(Cl)c3c(nc2c1)CCCC3 | inactive: -12.4% | 
COc1cc(NC(=O)c2cc(S(=O)(=O)N3CCC(C)CC3)cn2C)cc(OC)c1OC | inactive: -7.76% | 
CCOC(=O)C1CCCN(C(=O)Cn2ncc3c4ccccc4n(C)c3c2=O)C1 (stereo not drawn) | inactive: 8.17% | 
O=C(CSc1ncc(CO)n1Cc1ccc(F)cc1)NCc1ccco1 | inactive: 0.616% | 
COc1cc(O)ccc1-c1nc2cc(C)ccn2c1Nc1ccccc1C | inactive: -30.9% | 
Cc1cccc2c(=O)cc(CSc3ccccc3NC(=O)c3cccc(Br)c3)[nH]c12 | inactive: -8.54% | 
O=C(Nc1cccc(F)c1)C1CCN(S(=O)(=O)c2ccc3[nH]c4c(c3c2)CCCCC4)CC1 |  | active: 25.1 µM
COc1ccc(NC(=O)CSc2nc3nc(C)cc(C)n3n2)cc1OC | inactive: -18.4% | 
COC(=O)C1=C(C)NC(C)=C(C(=O)OCC(C)=O)C1c1ccccc1[N+](=O)[O-] (stereo not drawn) | inactive: 9.1% | 

SMILES | activity change, negative = inhibition | Potency
Fc1ccc(C(c2ccc(F)cc2)N2CCN(C/C=C/c3ccccc3)CC2)cc1 | inactive: -19.1% | 
CCOc1ccccc1NC(=O)NCc1noc2ccc(C)cc12 | inactive: -22.6% | 
Cc1ccc(N2CC(C(=O)NCc3nnnn3-c3ccc(C)c(C)c3)CC2=O)cc1C (stereo not drawn) | inactive: 8.38% | 
COc1cccc2c1cc1c(=O)n(CC(=O)NCc3ccc(N(C)C)cc3)nc(C)n12 | inactive: -5.86% | 
COc1cc(C(=O)NCC(c2ccc3c(c2)OCO3)N2CCN(C)CC2)cc(OC)c1OC (stereo not drawn) | inactive: -4.29% | 
CC(C)c1ccc2oc(-c3cc(NC(=O)c4cccnc4)ccc3Cl)nc2c1 | inactive: -21.7% [at 11.5 µM] | 
COc1cccc(NC(=O)c2sc3nc(C)c(C(=O)Nc4ccc(C)cc4C)c(-c4ccc(C)o4)c3c2N)c1 | inactive: 9.07% | 
CCC1CCCCN1CCCNC(=O)c1c(C)oc2ncn(CC(C)C)c(=O)c12 (stereo not drawn) | inactive: -13.1% | 
O=c1n(Cc2ccc(Cl)cc2)nc2n1-c1ccccc1OC2 | inactive: 2.74% | 
O=C(CSc1nc2ccccc2nc1Cc1ccc(Cl)cc1)N1CCN(c2ccccc2F)CC1 | inactive: -3.82% | 
Cc1ccccc1OCC(=O)Nc1ccc2nc(SCCOc3ccccc3)sc2c1 | inactive: 3.94% | 
Cc1ccc(C)c(N2CCN(C(=O)CCCCCn3c(=O)[nH]c4ccccc4c3=O)CC2)c1 | inactive: -23% | 
Cc1ccc(-c2nnc(Nc3ccc(S(N)(=O)=O)cc3)c3ccccc23)cc1S(=O)(=O)N1CCOCC1 | inactive: -5.53% | 
CC(NC(=O)c1cccc(NC(=O)c2nsc3ccccc23)c1)c1ccccc1 (stereo not drawn) | inactive: 0.0404% | 
COc1ccc2c(c1)Cc1sc(NC(=O)c3cccc(F)c3)nc1-2 | inactive: 15.2% | 
COc1ccc(C(=O)Nc2ccc3oc(-c4ccc(OC)cc4)nc3c2)cc1 | inactive: 34.3% | 
CCCC(=O)Nc1cc(-c2nc3cccnc3s2)ccc1C | inactive: 53.2% | 
CCc1cccc(NC(c2nnc(-c3ccccc3)o2)c2ccc(F)cc2Cl)c1 (stereo not drawn) | inactive: -35.6% | 
CC(=O)Nc1ccc(S(=O)(=O)NC2(C(F)(F)F)C(=O)Nc3c2c(=O)[nH]c(=O)n3-c2ccc(C)c(C)c2)cc1 (stereo not drawn) | inactive: -19.2% [at 11.5 µM] | 
CCOc1ccc(NS(=O)(=O)c2ccc3[nH]cc(C(=O)NC4CCCC4)c(=O)c3c2)cc1 | inactive: -23.7% | 
CCOc1ccc(C(=O)c2cn(Cc3ccc(OC)cc3)c3cc(OC)c(OC)cc3c2=O)cc1 | inactive: -22.7% | 
Cc1ccc(C(=O)CSc2nnc(-c3ccccc3)n2-c2ccccc2)cc1 | inactive: -27.2% | 
O=C(O)c1cc(O)c2c(c1)C(=O)c1cccc(O)c1C2=O | inactive: -10.3% [at 116 µM] | 
CCOc1ccc(NC(=O)CSc2ncc3c(n2)-c2cc(Cl)ccc2N(C)S3(=O)=O)cc1 | inactive: -18.5% | 
